Reference: the supplement of paper PMC11166567
The other results are listed elsewhere or left out.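 The calls were made as follows: active = permutation test q below 0.05 after Benjamini-Hochberg correction; inactive = q of 0.05 or more.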

system: A549; test: mean average precision of replicate retrieval against DMSO controls (Cell Painting phenotypic activity) (fraction (0-1)); higher = stronger, more reproducible morphological phenotype distinct from DMSO; extreme values may be limits of the assay; settings: 24 h; 5 µM
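Also: cosine similarity of well-level aggregated Cell Painting profiles ranks each compound's replicate wells against DMSO wells, four replicate plates, significance from 100,000 rank shuffles.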

Mean average precision, active:
Nc1cc(C(F)(F)F)c(-c2cc(N3CCOCC3)nc(N3CCOCC3)n2)cn1 1
Cn1cnc([N+](=O)[O-])c1Sc1ncnc2nc[nH]c12 0.447
Nc1ncnc2c1c(-c1cnc3[nH]ccc3c1)nn2C1CCCC1 1

same assay, conditions: 48 h; 5 µM

Mean average precision, inactive:
CN[C@H]1C(=O)N[C@@H]2Cc3ccc(cc3)Oc3cc4cc(c3O[C@@H]3O[C@H](C(=O)O)[C@@H](O)[C@H](O)[C@H]3NC(=O)CCCCCCCCC(C)C)Oc3ccc(cc3Cl)[C@@H](O)[C@@H]3NC(=O)[C@H](NC(=O)[C@@H]4NC(=O)[C@@H](NC2=O)c2cc(cc(O)c2Cl)Oc2cc1ccc2O)c1ccc(O)c(c1)-c1c(O[C@H]2O[C@H](CO)[C@@H](O)[C@H](O)[C@@H]2O)cc(O)cc1[C@@H](C(=O)NCCCN(C)C)NC3=O 0.25

Mean average precision, active:
NC(=NCc1ccccc1)NC(=O)c1nc(Cl)c(N)nc1N 0.764
N#CC[C@H](C1CCCC1)n1cc(-c2ncnc3[nH]ccc23)cn1 1
NC(=O)N1CCC(CC(=O)N2CCC([C@H]3c4ncc(Br)cc4CCc4cc(Cl)cc(Br)c43)CC2)CC1 1
OC[C@H]1O[C@@H](n2cnc3c(NC4CCCC4)ncnc32)[C@H](O)[C@@H]1O 0.429
CN1CCc2nc(C(=O)N[C@H]3C[C@H](C(=O)N(C)C)CC[C@@H]3NC(=O)C(=O)Nc3ccc(Cl)cn3)sc2C1 0.582
OC[C@H]1O[C@@H](Oc2cc(O)cc(/C=C/c3ccc(O)cc3)c2)[C@H](O)[C@@H](O)[C@@H]1O 1
CC(C)[C@H]1c2ccc(F)cc2CC[C@@]1(CCN(C)CCCc1nc2ccccc2[nH]1)OC(=O)C1CC1 1
O=C(CCNNC(=O)c1ccncc1)NCc1ccccc1 0.452
O=C(O)CC(O)(CC(=O)O)C(=O)O 0.332
CC(NC(=O)CCc1nc2ccccc2c(=O)[nH]1)c1ccccc1 (configuration not stated) 0.446
COC(=O)C1=C(C)NC(C)=C(C(=O)OC(C)(C)CN(C)CCC(c2ccccc2)c2ccccc2)C1c1cccc([N+](=O)[O-])c1 (configuration not stated) 0.938
Cc1ccc(C(=O)Nc2ccc(CN3CCN(C)CC3)c(C(F)(F)F)c2)cc1C#Cc1cnc2cccnn12 1
CCCCC[C@H](O)/C=C/[C@H]1[C@H](O)CC(=O)[C@@H]1C/C=C\CCCC(=O)O 0.451
CCCCC[C@H](O)/C=C/[C@@H]1[C@H]2C/C(=C/CCCC(=O)O)O[C@H]2C[C@H]1O 0.425
CC(=O)N[C@@H](CS)C(=O)O 0.619
Cc1cc(-c2nc(-c3ccc(OC(F)(F)F)cc3)no2)nn1Cc1ccnc(N2CCN(C3CC3)CC2)c1 1
O=C(O)CN1C(=O)c2cccc3cccc(c23)C1=O 0.588
C=C(NC(=O)C(=C)NC(=O)c1csc(C2=N[C@@H]3c4csc(n4)[C@H]4NC(=O)c5csc(n5)[C@H]([C@](C)(O)[C@@H](C)O)NC(=O)[C@H]5CSC(=N5)/C(=C/C)NC(=O)[C@H]([C@@H](C)O)NC(=O)c5csc(n5)[C@]3(CC2)NC(=O)[C@H](C)NC(=O)C(=C)NC(=O)[C@H](C)NC(=O)[C@H]([C@@H](C)CC)N[C@@H]2C=Cc3c([C@H](C)O)cc(nc3[C@H]2O)C(=O)O[C@@H]4C)n1)C(N)=O 1
CC(C)C(=O)c1c(C(C)C)nn2ccccc12 0.758
O=C(NCCS(=O)(=O)c1ccc(C(F)(F)F)cn1)c1ccc(Cl)cc1 0.452
Cc1nc2n(c(=O)c1CCN1CCC(c3noc4cc(F)ccc34)CC1)CCCC2O (configuration not stated) 0.51
C/C=C(/C)C(=O)O[C@H]1C(C)=C[C@]23C(=O)[C@@H](C=C(CO)[C@@H](O)[C@]12O)[C@H]1[C@@H](C[C@H]3C)C1(C)C 1
Cc1cc(Cl)ccc1OCCCC(=O)NO 1
NCC(=O)Nc1ccc(-n2nc(C(F)(F)F)cc2-c2ccc3c(ccc4ccccc43)c2)cc1 1
Cc1ccc(/C=C2\CNC/C(=C\c3ccc(C)cc3)C2=O)cc1 1
CC(C)(C)n1nc(-c2ccc(Cl)cc2)c2c(N)ncnc21 1
Cc1c(C)c2c(c(C)c1O)CC[C@@](C)(CCC[C@H](C)CCC[C@H](C)CCCC(C)C)O2 0.809
CCOC(=O)Nc1ccc(NCc2ccc(F)cc2)nc1N 1
O=C1NC(=O)c2cc(Nc3ccc(F)cc3)c(Nc3ccc(F)cc3)cc21 0.73
CC(C)c1cc(-c2n[nH]c(=O)n2-c2ccc3c(ccn3C)c2)c(O)cc1O 1
Nc1cc(C(F)(F)F)c(-c2cc(N3CCOCC3)nc(N3CCOCC3)n2)cn1 1
Cn1cnc([N+](=O)[O-])c1Sc1ncnc2nc[nH]c12 0.958
Nc1ncnc2c1c(-c1cnc3[nH]ccc3c1)nn2C1CCCC1 1
